According to the supplement of paper PMC4166925:
± gives the standard deviation of the averaged measurements. The full ranking holds about 33,000 sequences; the median of “E-score (dimensionless, -0.5 to 0.5)” is about -0.049, and the highest 2% start at about 0.37. Some of the results follow.

test system: T1, PmTbr T-box DNA-binding domain (GST fusion); experiment: PBM E-score of 8-mer (E-score (dimensionless, -0.5 to 0.5)); Tbr is Tbrain of the sea star Patiria miniata (Pm) or the sea urchin Strongylocentrotus purpuratus (Sp); higher = stronger binding preference; most listed sequences are background and not binding sites; details: the construct has about 5 more residues each side
T1 sequence: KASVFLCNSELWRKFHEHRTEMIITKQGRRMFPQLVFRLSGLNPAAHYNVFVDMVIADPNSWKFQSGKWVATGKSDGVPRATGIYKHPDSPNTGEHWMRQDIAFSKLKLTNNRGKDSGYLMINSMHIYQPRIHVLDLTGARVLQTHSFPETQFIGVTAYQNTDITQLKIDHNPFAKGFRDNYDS
Procedure, shortened: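 Each ungapped 8-mer received an enrichment E-score from the Universal PBM Analysis Suite, averaged over duplicate arrays. The proteins were Tbr T-box DNA-binding domains, covering the whole T-box plus about five flanking residues, fused to GST and expressed in BL21 E. coli at 20 °C before glutathione affinity purification. Universal Agilent oligonucleotide arrays were made double-stranded by primer extension and incubated with 200 nM protein in PBS (pH 7.5). The arrays were then scanned and quantified, and every 8-mer was scored from probe intensities.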

Sequence | PBM E-score of 8-mer
CAAGGTTC | 0.0603 ± 0.055
AAAACCTT | -0.155 ± 0.046
GACAAGAA | 0.01 ± 0.027
CATGGGCC | -0.27 ± 0.036
GACGTCGC | 0.0882 ± 0.036
TACCAGTA | -0.355 ± 0.06
ATATCGGC | -0.0843 ± 0.036
CTATCCTC | -0.198 ± 0.037
GGAAGTAC | -0.303 ± 0.038
GTGCTGAA | 0.282 ± 0.022
ACCGACGA | 0.0977 ± 0.038
GTCCCGAC | -0.0297 ± 0.019
CATTAGGA | -0.193 ± 0.0042
GAAGACTC | -0.199 ± 0.022
TATTAAAA | 0.0217 ± 0.078
GGGTGGAA | -0.0147 ± 0.041
GGTCGTAC | -0.147 ± 0.0024
ACCGCGGT | 0.0196 ± 0.13
AGGTAGAT | -0.0828 ± 0.0064
CCCTTCCG | -0.0409 ± 0.022
ATATATCC | -0.138 ± 0.025
CAAGCCCC | -0.0178 ± 0.07
GAGCGGCA | 0.0795 ± 0.025
AACCCAAA | -0.157 ± 0.037
ACTAGCTG | 0.0188 ± 0.027

Sequence | PBM E-score of 8-mer
CAGTGACA | 0.338 ± 0.0041
ATATAAAT | -0.153 ± 0.04
AGTTAGCG | 0.307 ± 0.029
CCCGCGAC | 0.136 ± 0.015
CACTTAGA | 0.182 ± 0.012
GTAACAGA | 0.156 ± 0.0055
CGTTACAA | -0.072 ± 0.034
GGAACGCA | -0.19 ± 0.073
GGACTCAA | -0.178 ± 0.043
ATAACGAG | -0.155 ± 0.041
ATTTATCA | 0.0516 ± 0.092
AGGCCCGA | -0.111 ± 0.024
CTCGTAAA | -0.077 ± 0.011
CATGTTTC | -0.0333 ± 0.079
TGATTGAA | -0.0306 ± 0.0055
ACGAAAGA | -0.02407 ± 0.00016
ATGACGCG | 0.0958 ± 0.023
CTCACTTA | 0.3367 ± 0.0027
CGCCCTAG | -0.0901 ± 0.022
AACTGTCC | -0.111 ± 0.023
CACGTGGA | 0.158 ± 0.052
TCGCTTAA | 0.0866 ± 0.049
TTGAACAA | -0.127 ± 0.035
AAAGTGTA | 0.147 ± 0.057
AGACCGTA | -0.193 ± 0.033

Sequence | PBM E-score of 8-mer
CCCGGCAG | -0.133 ± 0.039
CAAGGATC | -0.0471 ± 0.074
ACCTAACG | 0.104 ± 0.094
ATCCGTGA | 0.105 ± 0.0036
ATCTAAGG | -0.203 ± 0.014
GACCTCGA | -0.0343 ± 0.13
ACTAGATC | -0.298 ± 0.043
ATGCGTGG | -0.0469 ± 0.043
GTGTTCAA | 0.0941 ± 0.022
GAGCCAGC | 0.0467 ± 0.04
ACCGAGGT | 0.145 ± 0.022
CGAATAAC | 0.0403 ± 0.031
CCCCCGAC | 0.0442 ± 0.00089
CCTCACCG | -0.127 ± 0.05
CTCTCTTA | -0.177 ± 0.066
CGAAGTTA | -0.0444 ± 0.043
AAAGCGGC | -0.193 ± 0.013
ACTTTAAA | -0.00914 ± 0.097
AGACGTGG | -0.0504 ± 0.053
AGTGCTCA | 0.00751 ± 0.026
CGATTATA | 0.00861 ± 0.057
CAAGCTCA | -0.0245 ± 0.044
AGCGGTGG | -0.224 ± 0.076
AAGTCCTC | -0.149 ± 0.0063
AATCCTGT | 0.094 ± 0.033

Sequence | PBM E-score of 8-mer
GAATTCGA | -0.133 ± 0.029
CTTATGAC | 0.0992 ± 0.038
AGCATGTA | 0.0286 ± 0.013
GCTGAGAA | 0.198 ± 0.012
CGTTATTC | -0.0468 ± 0.057
GGGGACCA | -0.291 ± 0.017
AGTGTTCC | 0.0364 ± 0.038
CCATGCAC | -0.0379 ± 0.06
GGTATACC | -0.225 ± 0.068
CACCGAGC | -0.0641 ± 0.12
ACTTTTCC | -0.0603 ± 0.078
TGTTGCAA | 0.15 ± 0.065
ATAGAGAG | -0.075 ± 0.049
TATGAGCA | -0.242 ± 0.04
CAATTCAC | 0.237 ± 0.015
TGAGCACA | -0.0876 ± 0.029
ACGTACCT | -0.0816 ± 0.068
CCTCACGC | 0.3174 ± 0.0025
CCCCGACA | 0.189 ± 0.032
AATTCCGT | -0.202 ± 0.015
ACGCATGA | -0.111 ± 0.035
CGGTGCAA | 0.0869 ± 0.0063
CTCACCAG | 0.2021 ± 0.00023
ACCAAGTC | -0.00442 ± 0.087
TGCCGCAA | -0.0959 ± 0.067

Sequence | PBM E-score of 8-mer
TATGAGAA | -0.274 ± 0.048
AGGAACAT | -0.253 ± 0.0039
AGAAACTA | -0.00754 ± 0.026
CTCAGCTA | 0.134 ± 0.039
GATCAATA | -0.0796 ± 0.11
CAAGTAGC | 0.1943 ± 0.0011
ATAATTCG | 0.045 ± 0.11
CGTCCACG | -0.132 ± 0.049
AGCTTTTA | 0.000395 ± 0.032
CGGGCTAC | -0.342 ± 0.0098
CTAACTGA | -0.0795 ± 0.084
GCGACGCA | 0.0984 ± 0.028
TGTACTAA | -0.054 ± 0.0082
ACCATGGA | -0.075 ± 0.0094
CGTGTCTA | 0.0962 ± 0.0027
GCGTGGAC | 0.0317 ± 0.021
ACGCGAAC | 0.203 ± 0.043
GAAATACA | 0.112 ± 0.013
GTGGTCAA | -0.0506 ± 0.018
CGAGATAC | -0.00869 ± 0.012
CTCTGGGA | -0.0144 ± 0.017
AGTCCACC | -0.255 ± 0.047
AGTGGGCA | -0.207 ± 0.015
AAGAAGAG | -0.271 ± 0.045
TTCTAGAA | 0.0424 ± 0.095

Sequence | PBM E-score of 8-mer
ACAACTGG | 0.165 ± 0.013
ACGGGTCC | -0.0144 ± 0.012
ATTACCAG | -0.194 ± 0.038
ACATCTCA | 0.00973 ± 0.005
ATAAGACG | -0.0327 ± 0.018
ACCGCGCG | 0.096 ± 0.0033
TATCCTGA | -0.124 ± 0.038
CGTGACTC | 0.0879 ± 0.021
GATATCCA | 0.0568 ± 0.0081
ATCAAAAA | -0.192 ± 0.023
CGTCACAC | 0.433 ± 0.017
CCCTCCAC | -0.0702 ± 0.038
CAGCAGGG | -0.211 ± 0.11
AACATTAG | -0.0332 ± 0.0063
TACAAAAA | -0.21 ± 0.072
GCACAGGC | -0.0764 ± 0.0017
CAGACGGC | -0.201 ± 0.055
AGCAGGCG | 0.1 ± 0.031
CGGGCCGC | -0.226 ± 0.025
GACGTTGA | -0.077 ± 0.015
CATTTACC | 0.036 ± 0.032
CGTTTCAG | 0.0162 ± 0.026
AGCATGAG | -0.117 ± 0.07
CACAGTCA | 0.118 ± 0.033
ACGTACCC | -0.00781 ± 0.019

Sequence | PBM E-score of 8-mer
AATATGTG | 0.239 ± 0.023
CGTCAAAG | 0.196 ± 0.044
CCTTATAA | -0.082 ± 0.039
GTGTGGGA | 0.343 ± 0.02
CATTCATC | -0.0785 ± 0.059
CGAAAACG | 0.109 ± 0.14
TCAGCGGA | -0.256 ± 0.03
CGGATGGA | -0.227 ± 0.12
GCCTTATA | -0.0457 ± 0.036
AATGATCT | -0.0617 ± 0.0091
AGCATACC | -0.0981 ± 0.025
CCAAAAGC | -0.118 ± 0.065
CAGGCATC | -0.213 ± 0.048
AGGATTAT | 0.056 ± 0.13
ATCGAACC | -0.292 ± 0.071
ACAACTCG | 0.249 ± 0.01
ACAGTACC | -0.0912 ± 0.0061
AACCGCGC | -0.0685 ± 0.025
GAAGTTCA | -0.131 ± 0.0092
AACCAGGT | 0.135 ± 0.029
ACTTTCGC | 0.3198 ± 0.0023
AGGGCCGC | -0.214 ± 0.079
